The list shows a part of the results.
B1: chr5:37680062:37680063:+_ENSMUSG00000029121_ENSMUST00000031004|mus_hu|mus_mus_mus_hu_False|28_78 (ssRNA)
RNA: GGGAGUUCUACAGUCCGACGAUCUUUGGGUGUAGCUGGUACCUCGUACACAGGACCAUCGUACAUGCCCCUGGAAACCCCUUGCAAUCCAAAAACCUUAUUCCUGAUCCUGACACGCUGGUACAGGUGCUCCGGGAACGCCUUCAACAGAGGAUUGAGCAUCA
B2: chr14:76906579:76906580:+_ENSMUSG00000022010_ENSMUST00000022587|mus_hu|FALSE|FALSE (ssRNA)
RNA: GGGAGUUCUACAGUCCGACGAUCUGGAAAAGAGAUAAUGGCAUAUGUCAGUCUCACGUCUCUUUCGCAGCGAGCAAUGAAAUGGGUGACUGUGGAGGCAGAUUCUCCCUAGCACAUCUUCUCCGUCUGUUCAGUUCACACGCACAACAGAGGAUUGAGCAUCA
B3: 72050788_72050908_1190_CDS_ENSG00000133858_ENST00000378743|human|control|control (ssRNA)
RNA: GGGAGUUCUACAGUCCGACGAUCCUGAAAAGUUUUGACUUGUGUUUUCUCCUCAGGAGCUACUUCUUUACUUGAAUCCUUUGUAAUACUGACAUUAUCAGUGCUAGUUUGGUCCUCGAAGUUCAAUGUUUUAGGAUCUUCCUGCAACAGAGGAUUGAGCAUCA
B4: chr14:62205016:62205017:+_ENSG00000100644_ENST00000337138|hu_mus|motif|central (ssRNA)
RNA: GGGAGUUCUACAGUCCGACGAUCCUGAUCUUGAAUCUGGGGCAUGGUAAAAGAAAGUCCCAGUGACUCUGGACUUGAUUCGGAUUUUAAUGCAACCUCUUGAUUCAGUGCAGGAUCAGCACUACUUCGAAGUGGCUUUGGAGUCAACAGAGGAUUGAGCAUCA
B5: chr1:163112212:163112213:-_ENSG00000143248_ENST00000313961|hu_hu|hu_hu_hu_mus_False|28_78 (ssRNA)
RNA: GGGAGUUCUACAGUCCGACGAUCUUUUAUUAUCAGUAAGAGUGAGUUACAUACUAGAUAAAGUAUUGGAUACAAUAAUCAGGAAACAAACACUAUUGGUCCAGAAUUUAAAAUAUAAUGAGCGAAGUGCUGGCACAGGACUUACAACAGAGGAUUGAGCAUCA
B6: chr9:136895555:136895556:-_ENSG00000169925_ENST00000303407|hu_hu|motif|central (ssRNA)
RNA: GGGAGUUCUACAGUCCGACGAUCGAGUACUUUCUACCAUUUUUAUUCUGUUGUGUUGAGGCCAGCAUUGCAAUAAACAAGCGGAACGGCUUACAUUGGACUCAUUUUCAGUAACUGACAUUUACAGGAAUAUACUAGAAACGGCAACAGAGGAUUGAGCAUCA
B7: chr5:74638446:74638447:+_ENSG00000113161_ENST00000287936|hu_mus|FALSE|FALSE (ssRNA)
RNA: GGGAGUUCUACAGUCCGACGAUCAGGGGUGGGAGGCCACGAAGAGGCCAUGCAUCCGGAAAAGUCUUGACAACAUUGUAGCCUCACAGUCCUUGGAUCCUCCGGAUCUCAAUGGAGGCCAAGCCGGCCCAGCUGCCGUCUCCACAACAGAGGAUUGAGCAUCA
B8: 28503210_28503330_2704_CDS_ENSG00000100154_ENST00000397906|human|control|control (ssRNA)
RNA: GGGAGUUCUACAGUCCGACGAUCGAGCACAGACUCAUUUCCACUUAGCUGCUGCAGCAUGGCCAAUUGCUGCUCAAAGUAGCCAAUGGCUUCUUCCAUCACAUUCAUGUUCAUCUUUGUGAUGCCCAUGUUGCCAUAGACCUGCAACAGAGGAUUGAGCAUCA
B9: chr12:88510985:88510986:-_ENSMUSG00000034111_ENSMUST00000037418|mus_mus|FALSE|FALSE (ssRNA)
RNA: GGGAGUUCUACAGUCCGACGAUCUCUUAGACCCUUCAAGGUAUGUGUUCUGUGGUCUCCACAAUUACCUGGGUUUUAGUAAAUAAUACUUUGUCUCUCAAGUUCUCUUACUGCAAAACUUUAGUGCGUGAGUAGUGAAUGCAUCAACAGAGGAUUGAGCAUCA
B10: chr7:141450121:141450122:+_ENSG00000106028_ENST00000265304|hu_mus|hu_hu_hu_mus_True|1_18 (ssRNA)
RNA: GGGAGUUCUACAGUCCGACGAUCUCAUCCGUUCUAUGCCUUUUCUUUUGUCUGGUCACUCAGAAAUAUAAUGUUAUCAGCUAUGAUUGUUGUUGCUUGCCGCCUCACAUUGUUUUUAUCCAUGUAUUCGCCAUAGUCUAUUUUCAACAGAGGAUUGAGCAUCA
B11: chr2:32445735:32445736:+_ENSG00000152683_ENST00000406369|hu_mus|FALSE|FALSE (ssRNA)
RNA: GGGAGUUCUACAGUCCGACGAUCUCGCUAUUCCCCAUCACAAUAAGUUAGAGUCUGUCAGGGUCUUGGCUGCCCCAUCCUGUUGAUUCCAUAUCUACUUGGUAUAUGUGGGAAGGUGGGCCUCAAUCCCUGGCCUGCUCCAACCAACAGAGGAUUGAGCAUCA
B12: chr7:141438946:141438947:+_ENSG00000106028_ENST00000265304|hu_mus|hu_hu_hu_mus_True|58_78 (ssRNA)
RNA: GGGAGUUCUACAGUCCGACGAUCGACGAAAUACCUGUAACACAGGUCUUCGAAACAUUCUAUUUUCUUUUCUUACAGUCUAAUCUUUAGGCUUUUCCUAAAGGAAAGAAAGAAAAGAGAAAAAUGAUAAAUCAAGAAACUACACAACAGAGGAUUGAGCAUCA
B13: chr7:112757510:112757511:-_ENSG00000214194_ENST00000397764|hu_hu|motif|central (ssRNA)
RNA: GGGAGUUCUACAGUCCGACGAUCUUUUCGUGCAUAUACCCCCAAGCAGGCACAAAUGCCUGUAAUGCUGAGAACCACACCGGACAAAAGGGCGAUUGCAUCACCGGCUUCUACUGCUUCCACAACAGGCAGCACCAAAAGCAGCAACAGAGGAUUGAGCAUCA
B14: 91299931_91300051_412_CDS_ENSMUSG00000038459_ENSMUST00000117085|mouse|control|control (ssRNA)
RNA: GGGAGUUCUACAGUCCGACGAUCGCUACACAUCUGGCCCAAGUCCACGGCGUUGCCGUGCGAGAAGAGCAGCGUGUAGCGGCUGGAGGGCGCGCAGCGCACGAACAUGCAGCCCAGCCGGUUGUCGCGGGCCGUGCGCGAGAACAACAGAGGAUUGAGCAUCA
B15: chr2:232320318:232320319:-_ENSG00000115053_ENST00000322723|hu_hu|hu_hu_hu_mus_True|38_78 (ssRNA)
RNA: GGGAGUUCUACAGUCCGACGAUCACUAUUAAAGUCUACAAAACCAAACCCUUUGGAGGACCCAGUUUCCCGAUCAGUGACUAUUCUUGCACGAACAGAGCCGUCAAAUGAUUCUUUUAAGGUCUCUUCAGUGGUAUCCUCAGACAACAGAGGAUUGAGCAUCA
B16: chr21:38528988:38528989:+_ENSG00000182670_ENST00000355666|hu_hu|motif|central (ssRNA)
RNA: GGGAGUUCUACAGUCCGACGAUCAAAAUCAAGCAGUUUAAGAGAUGCUCCAUAACGAGAAAAGAAAGUUCCUGUGGCAUCGGAGCCAAAGCUAUUAAGUUUUUGGAUCCAGGCGGCUAAUUUGGGCUCCACUUCUUUAAGCUCCAACAGAGGAUUGAGCAUCA
B17: 107048173_107050487_268_CDS_ENSMUSG00000018433_ENSMUST00000018577|mouse|control|control (ssRNA)
RNA: GGGAGUUCUACAGUCCGACGAUCAGGGCAUGUUAUACUCUGACCUUGCUUCACCGACCAGCUGCCCAACGGUUUCUGGUCAGAAACCUUGUAAAGGACGACGGUCCUGCCGCUGUCCGUCACUAGGAACUGGUCGGCUUUGUCCAACAGAGGAUUGAGCAUCA
B18: chr2:217002811:217002812:+_ENSG00000079246_ENST00000392132|hu_mus|FALSE|FALSE (ssRNA)
RNA: GGGAGUUCUACAGUCCGACGAUCCAGCGAGGAAAACAUGUAUUGCCGCAAGUCUUCCAUGAAAGGCAGCUGCACAUAAACUAAACACUCAUAGGCGUCCUUAAUGUAAGGGAAGGCUACACCAACUUGAGGAUUAGAUCUUUUCAACAGAGGAUUGAGCAUCA
B19: chr15:96202663:96202664:+_ENSMUSG00000033237_ENSMUST00000096250|mus_hu|motif|central (ssRNA)
RNA: GGGAGUUCUACAGUCCGACGAUCUAUACUGCUCACAGAUGAACCACCCAAAGUUAAUACAGGUCCAUUAGAAAUUCUUUCGGGUUGAUCACCUUUGGCAGUAUCUUGCUGAGUGAUAUCUAAAGUCCCUUGUGGUUCCAUUGGCAACAGAGGAUUGAGCAUCA
B20: chr3:41267201:41267202:+_ENSG00000168036_ENST00000349496|hu_hu|FALSE|FALSE (ssRNA)
RNA: GGGAGUUCUACAGUCCGACGAUCCAAGAAUUUAACAUUUGUUUUGUUGAGCAAGGCAACCAUUUUCUGCAGCCCACCAGCUAAACGCACUGCCAUUUUAGCUCCUUCUUGAUGUAAUAAAAGGUUGUGGAGAGUUGUAAUGGCCAACAGAGGAUUGAGCAUCA
B21: 42858823_42859980_4589_CDS_ENSG00000105429_ENST00000334370|human|control|control (ssRNA)
RNA: GGGAGUUCUACAGUCCGACGAUCGGCAGAGCCCACCGAAGCAUUGAAGCCCCAGGAUGAGGAGCCAUUGGCCUCCCAGUGCAGCACGAGCAGCCCAGACAGGGCCUGAACAGUGAGGGGCCUGUCCCGUCGCUGGCCGCAGAACAACAGAGGAUUGAGCAUCA
B22: chr1:66480114:66480115:+_ENSMUSG00000015222_ENSMUST00000024639|mus_hu|mus_mus_mus_hu_True|1_98 (ssRNA)
RNA: GGGAGUUCUACAGUCCGACGAUCUGGCCUGUGGCGGAUGUUCUUUAGAGAGCCACAUUUGGAUGUCACAUGGCUUAGGUCUAUUUUCUUGGUAACAAUUUGUACCUGCCCCCCUUUAGGCUGGUAUUUGAUGUUGUCAGUUGACAACAGAGGAUUGAGCAUCA

biological target: T1, UNK ZnF1-3 (human, UniProt Q9C0B0 31-174); experiment: nsRBNS (natural sequence RNA bind-n-seq); RBNS binding buffer (assumed for nsRBNS): 25 mM Tris pH 7.5, 150 mM KCl, 3 mM MgCl2, 0.01% Triton X-100, 500 ug/ml BSA, 20 U/ml SUPERase-In, 4 C; UNK is unkempt and MSI1 is Musashi-1; names of the RNAs are library labels; protein concentration not given here; high values mean tight binding
T1 sequence: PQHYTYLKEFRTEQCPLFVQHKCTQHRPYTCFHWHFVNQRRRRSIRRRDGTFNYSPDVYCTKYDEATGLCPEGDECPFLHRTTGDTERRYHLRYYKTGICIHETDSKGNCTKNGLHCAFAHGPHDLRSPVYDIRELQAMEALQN

Binder | binding signal
B1 | 0.701 enrichment R
B2 | 0.961 enrichment R
B3 | 0.391 enrichment R
B4 | 0.83 enrichment R
B5 | 1.73 enrichment R
B6 | 1.16 enrichment R
B7 | 1.1 enrichment R
B8 | 0.645 enrichment R
B9 | 0.837 enrichment R
B10 | 0.372 enrichment R
B11 | 0.567 enrichment R
B12 | 0.275 enrichment R
B13 | 0.898 enrichment R
B14 | 0.321 enrichment R
B15 | 0.716 enrichment R
B16 | 0.882 enrichment R
B17 | 0.177 enrichment R
B18 | 1.17 enrichment R
B19 | 0.342 enrichment R
B20 | 1.15 enrichment R
B21 | 1.06 enrichment R
B22 | 0.499 enrichment R

Source: article PMC12136788
